Assay results as given in publication PMC4336329 (PLoS ONE, 2015).
Hit rate of the full screen: of about 310,000 compounds, about 14,000 (4.5%) showed an effect of 50% or more. The effect is printed as a negative number. This is one part of the list.

Molecular target: human ether-à-go-go-related gene (hERG) potassium channel (human, UniProt Q12809)
Experiment: primary screen, population patch clamp on CHO cells stably expressing hERG
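Note: peak tail current of the secondary pulse compared with the same well before compound.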

Chain of human ether-à-go-go-related gene (hERG) potassium channel (Q12809 whole entry, looked up): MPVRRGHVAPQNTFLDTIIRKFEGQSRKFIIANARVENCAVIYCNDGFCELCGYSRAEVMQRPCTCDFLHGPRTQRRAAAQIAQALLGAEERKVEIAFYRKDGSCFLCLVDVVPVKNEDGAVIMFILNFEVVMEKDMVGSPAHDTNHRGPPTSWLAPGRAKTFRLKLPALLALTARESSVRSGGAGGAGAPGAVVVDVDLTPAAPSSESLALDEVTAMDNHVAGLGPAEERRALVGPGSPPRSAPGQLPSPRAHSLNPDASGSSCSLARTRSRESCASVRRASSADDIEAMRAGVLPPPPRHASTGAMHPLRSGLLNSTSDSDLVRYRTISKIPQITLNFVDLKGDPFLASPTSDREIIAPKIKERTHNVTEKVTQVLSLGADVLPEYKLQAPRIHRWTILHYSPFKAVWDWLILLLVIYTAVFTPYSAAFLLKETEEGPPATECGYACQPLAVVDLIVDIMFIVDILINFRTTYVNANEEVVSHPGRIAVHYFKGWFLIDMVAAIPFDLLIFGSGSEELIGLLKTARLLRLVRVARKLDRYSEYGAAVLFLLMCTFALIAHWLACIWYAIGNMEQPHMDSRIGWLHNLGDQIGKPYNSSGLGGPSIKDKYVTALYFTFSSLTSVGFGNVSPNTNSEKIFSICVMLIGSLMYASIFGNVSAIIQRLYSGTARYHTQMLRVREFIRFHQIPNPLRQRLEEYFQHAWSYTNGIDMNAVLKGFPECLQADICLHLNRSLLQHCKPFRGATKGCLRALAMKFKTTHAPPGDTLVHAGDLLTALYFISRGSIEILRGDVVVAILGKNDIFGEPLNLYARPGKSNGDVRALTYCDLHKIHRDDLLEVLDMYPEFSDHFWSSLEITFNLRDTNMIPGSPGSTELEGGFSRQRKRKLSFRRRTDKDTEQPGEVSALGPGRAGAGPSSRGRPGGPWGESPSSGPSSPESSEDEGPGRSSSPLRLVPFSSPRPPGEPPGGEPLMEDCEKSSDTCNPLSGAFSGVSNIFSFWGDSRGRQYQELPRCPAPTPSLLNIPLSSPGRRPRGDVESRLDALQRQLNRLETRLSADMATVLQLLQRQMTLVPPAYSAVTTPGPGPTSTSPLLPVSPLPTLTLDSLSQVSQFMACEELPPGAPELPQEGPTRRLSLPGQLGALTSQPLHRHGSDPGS

Compared with `S=C(NCCc1ccccc1)N1CCN(C2CCCCC2)CC1`, `O=C(NCCC1=CCCCC1)C1CCN(C(=O)c2ccc(Cl)cc2)CC1` is higher in “hERG current change (%, negative = inhibition) at 10uM” value: -63.4% for the first, -35.7% for the second.

Compared with `O=C(O)c1ccccc1OCCOc1ccccc1C(=O)O`, `COc1ccc(OC)c(NC(=O)c2cccc(NC(=O)c3ccccc3C(=O)O)c2)c1` is lower in “hERG current change (%, negative = inhibition) at 10uM” value: 23.9% for the first, 17.5% for the second.

Compared with `CCOc1ccc2ccccc2c1/C=N/NC(=O)c1cc(C)[nH]n1`, `Cc1cc(Cl)ccc1OCC(=O)Nc1ccccc1CO` is lower in “hERG current change (%, negative = inhibition) at 10uM” value: 8.11% for the first, 3.7% for the second.

First: COc1ccc2c(c1OC)C(=O)N1C2SC(C)(C)[C@H]1C(=O)NCC(C)C (stereo partly drawn)
Second: COc1ccc(NC(=O)CN2C(=O)C(C)SC(C)C2=O)c(OC)c1 (stereo not drawn)
The “hERG current change (%, negative = inhibition) at 10uM” value of the first is higher: 21.9% for the first, 18.5% for the second.

First: O=C(CN(Cc1ccccc1)S(=O)(=O)c1ccc2c(c1)OCCO2)N/N=C/c1ccc(F)cc1
Second: Cc1cc(C)nc(NS(=O)(=O)c2ccc(NC(=O)Cc3ccccc3F)cc2)n1
The “hERG current change (%, negative = inhibition) at 10uM” value of the first is lower: 3.7% for the first, 4.74% for the second.

Compared with `Cc1cccc(C)c1NC(=O)Nc1cccs1`, `CC(=O)Nc1c(C)ccc(CNC(=O)COc2cc(C)ccc2C)c1C` is lower in “hERG current change (%, negative = inhibition) at 10uM” value: 20.7% for the first, -0.074% for the second.

First: COc1ncccc1C(=O)N1CCCC(C(=O)c2cc(F)ccc2F)C1 (stereo not drawn)
Second: COc1ccccc1N1C(=O)CC(Sc2ncccc2C(=O)O)C1=O (stereo not drawn)
The “hERG current change (%, negative = inhibition) at 10uM” value of the first is lower: -9.02% for the first, 5.48% for the second.

Going from `Cc1cccc(NC(=O)CCN2CCC(C(N)=O)CC2)c1` to `CCOC(=O)c1cccc(NC(=O)COC)c1`, the “hERG current change (%, negative = inhibition) at 10uM” value rises from 9.57% to 13.5%.

First: Cc1cc(C)c2[nH]c(=O)c(CN(CC3CCCO3)C(=S)Nc3ccccc3)cc2c1 (stereo not drawn)
Second: Cc1ccc2c(c1)CCCN2CC(=O)N(C)c1c(N)n(Cc2ccccc2)c(=O)[nH]c1=O
The “hERG current change (%, negative = inhibition) at 10uM” value of the first is lower: 2.37% for the first, 9.08% for the second.

First: CCc1cccc(C)c1NC(=O)CSc1nc(C)c(C)o1
Second: Cc1ccc2nc(SCC(=O)Nc3ccc(C)c(Cl)c3)nc(=O)n2c1
The “hERG current change (%, negative = inhibition) at 10uM” value of the first is higher: 17.2% for the first, -12.8% for the second.

Compared with `COc1ccc(C2SCC(=O)N2c2nc3ccccc3s2)cc1` (stereo not drawn), `COc1cc(OC)cc(C(=O)NCC(=O)OCc2nc3ccccc3s2)c1` is lower in “hERG current change (%, negative = inhibition) at 10uM” value: 10.1% for the first, 3.5% for the second.

Compared with `CN(CC(=O)NCc1ccc(F)cc1)Cc1ccc(Br)cc1`, `COc1ccc(CN(C(=O)c2snc(C(N)=O)c2N)C(C)C(=O)NCc2ccc(F)cc2)cc1` (stereo not drawn) is higher in “hERG current change (%, negative = inhibition) at 10uM” value: -35.5% for the first, -15.1% for the second.

First: Cc1cccc(NC(=O)c2cccc(N3C(=O)CCC3=O)c2)c1
Second: COc1ccc(NS(=O)(=O)c2ccc(N3C(=O)CCC3=O)cc2)cc1
The “hERG current change (%, negative = inhibition) at 10uM” value of the first is lower: -3.89% for the first, 7.07% for the second.

Compared with `CC(OC(=O)Cn1[nH]c(=O)c2ccccc2c1=O)C(=O)Nc1cccc(Cl)c1` (stereo not drawn), `COc1ccc(C(C)=O)cc1COC(=O)Cc1n[nH]c(=O)c2ccccc12` is lower in “hERG current change (%, negative = inhibition) at 10uM” value: -17.2% for the first, -20.8% for the second.

Going from `COc1ccc(-c2cc(-c3ccc(O)cc3)nc(N)c2C#N)cc1OC` to `COc1ccc(-c2ccc3c(c2)S(=O)(=O)c2cccc(C(=O)NC4CCCCC4)c2C3=O)cc1OC`, the “hERG current change (%, negative = inhibition) at 10uM” value rises from -12% to 19.3%.

Going from `Cc1ccc(-n2nnnc2-c2ccco2)cc1` to `CC(=O)NCCc1nc2ccccc2n1CCOc1ccc(C)cc1`, the “hERG current change (%, negative = inhibition) at 10uM” value falls from -2.37% to -12.9%.

First: Cc1ccccc1C(=O)NCC(=O)OCC(=O)NC(C)C1CC2CCC1C2 (stereo not drawn)
Second: CC(NC(=O)COc1ccccc1F)C1CC2CCC1C2 (stereo not drawn)
The “hERG current change (%, negative = inhibition) at 10uM” value of the first is lower: -6.52% for the first, 18.5% for the second.

Compared with `COC(CNC(=O)C(=O)NCC1CCCN1S(=O)(=O)c1cccs1)OC` (stereo not drawn), `O=C(NCCc1ccc(F)cc1)C(=O)NCC1CCCN1S(=O)(=O)c1cccs1` (stereo not drawn) is lower in “hERG current change (%, negative = inhibition) at 10uM” value: -5.67% for the first, -57.6% for the second.

Going from `COCCNC(=O)CCc1nc(-c2ccccc2)no1` to `COc1ccc(NC(=O)C(NC(=O)c2ccccc2)C(C)C)cc1` (stereo not drawn), the “hERG current change (%, negative = inhibition) at 10uM” value falls from 13.9% to -7.86%.

Compared with `CN(Cc1ccccc1)C1=CC(=[N+]2CCCC2)CC(C)(C)C1.[I-]`, `CN(Cc1ccccc1)S(=O)(=O)c1ccc(Cl)nc1` is higher in “hERG current change (%, negative = inhibition) at 10uM” value: -55.4% for the first, -10.5% for the second.

First: O=C(OCc1cccc([N+](=O)[O-])c1)c1ccc2ccccc2n1
Second: O=C(OCCC1Oc2cccnc2NC1=O)c1ccc([N+](=O)[O-])cc1 (stereo not drawn)
The “hERG current change (%, negative = inhibition) at 10uM” value of the first is higher: 7.33% for the first, 6.29% for the second.

First: O=C(/C=C/c1ccc(Cl)c(Cl)c1)Nc1cccnc1
Second: O=C(CCNC(=O)c1ccc(Cl)cc1)Nc1ccc(Cl)cc1F
The “hERG current change (%, negative = inhibition) at 10uM” value of the first is lower: -0.371% for the first, 13.6% for the second.

Going from `CNC(=S)SCCOc1ccccc1` to `CN(C)c1nc2c(c(=O)[nH]c(=O)n2C)n1CCOc1ccccc1`, the “hERG current change (%, negative = inhibition) at 10uM” value rises from -4.52% to 13.8%.

Compared with `COc1ccc(OC)c(S(=O)(=O)N2CCCC(C(=O)N3CCCCCC3)C2)c1` (stereo not drawn), `Cc1ccc(NC(=O)c2cc(S(=O)(=O)N3CCCCC3)c[nH]2)cc1C` is higher in “hERG current change (%, negative = inhibition) at 10uM” value: -9.84% for the first, 9.77% for the second.

Compared with `O=C(COc1ccc2ccc(=O)oc2c1)N1CCN(C(=O)C2COc3ccccc3O2)CC1` (stereo not drawn), `Cc1ccccc1CC(=O)N1CCN(S(=O)(=O)c2cccs2)CC1` is higher in “hERG current change (%, negative = inhibition) at 10uM” value: -46.2% for the first, -9.48% for the second.

Going from `CCOC(=O)N1CCN(C(=O)C2CCN(S(=O)(=O)c3ccc(Cl)cc3)CC2)CC1` to `CCOC(=O)N1CCN(CC(=O)N2c3ccccc3CC2C)CC1.O=C(O)C(=O)O` (stereo not drawn), the “hERG current change (%, negative = inhibition) at 10uM” value rises from -48.7% to 10.4%.

Going from `CCN(CC)S(=O)(=O)c1ccc(C(=O)OCCN2C(=O)CCC2=O)cc1` to `COC(=O)C1=C(C)Nc2c(c(=O)n(C)c(=O)n2C)C1c1ccc(Cl)cc1` (stereo not drawn), the “hERG current change (%, negative = inhibition) at 10uM” value rises from -7.82% to -4.27%.

First: O=C(O)c1cc2nc3c(c(C(F)(F)F)n2n1)CCc1ccccc1-3
Second: O=C(Cn1c(C(F)(F)F)nc2ccccc21)N1CCCC1
The “hERG current change (%, negative = inhibition) at 10uM” value of the first is higher: 6.54% for the first, -2.97% for the second.

Compared with `O=C(NCc1ccco1)c1cnn2c1NC(c1ccccc1)CC2C(F)(F)F` (stereo not drawn), `O=C(CN1CCC(NC(=O)c2ccccc2F)CC1)NCc1ccc(F)cc1` is lower in “hERG current change (%, negative = inhibition) at 10uM” value: -2.23% for the first, -24.6% for the second.

Going from `O=C1CCCC2=C1C(c1cccc(O)c1)C1=C(N2)c2ccccc2C1=O` (stereo not drawn) to `Cc1c(NS(=O)(=O)c2cccs2)c(=O)n(-c2ccccc2)n1C`, the “hERG current change (%, negative = inhibition) at 10uM” value falls from 1.67% to -7.5%.

First: CCCCCCCCCCCC(=O)NC(C(=O)O)C(O)c1ccccc1 (stereo not drawn)
Second: CCCN(CCC)CCNC(=O)c1cc2c(=O)n(CC)c3ccccc3c2s1
The “hERG current change (%, negative = inhibition) at 10uM” value of the first is higher: 6.54% for the first, -17.3% for the second.

First: Cc1ccc(-c2nnn(CC(=O)N(CCN3CCOCC3)C(C(=O)NC3CCCC3)c3ccncc3)n2)o1 (stereo not drawn)
Second: COc1ccccc1C(=O)Nc1ccnn1C1CCN(Cc2cnn(C)c2)CC1
The “hERG current change (%, negative = inhibition) at 10uM” value of the first is higher: 7.82% for the first, -55.6% for the second.

First: CCOC(=O)c1sc(NC(=O)C(CC)Sc2nccn2C)nc1C (stereo not drawn)
Second: CCOC(=O)Cn1nc(C)c2c1CCCC2=O
The “hERG current change (%, negative = inhibition) at 10uM” value of the first is higher: 2.94% for the first, 1.49% for the second.

Compared with `O=C(CSc1nncs1)NC(=O)NCc1ccco1`, `O=C(CN1C(=O)COc2ccccc21)NCC1CCCO1` (stereo not drawn) is lower in “hERG current change (%, negative = inhibition) at 10uM” value: 20.2% for the first, -14.4% for the second.

Going from `CCOC(=O)C1=C(c2ccccc2)N=C2SCC(=O)N2C1c1ccc(OCC)c(OCC)c1` (stereo not drawn) to `CCOc1ccc(CCNC(=O)c2cnccn2)cc1OCC`, the “hERG current change (%, negative = inhibition) at 10uM” value rises from 6.45% to 11.1%.

Compared with `O=C(c1cn(Cc2ccccc2)nc1-c1cccnc1)N1CCN(Cc2ccccc2)CC1`, `CCN1CCN(c2nc(-c3ccccc3)nc3ccccc23)CC1` is lower in “hERG current change (%, negative = inhibition) at 10uM” value: -33.5% for the first, -63% for the second.

First: O=[N+]([O-])c1cccc(C(O)C23CN4CN(CN(C4)C2)C3)c1 (stereo not drawn)
Second: NC(=O)c1ccc(N2CCN(c3ccccc3F)CC2)c([N+](=O)[O-])c1
The “hERG current change (%, negative = inhibition) at 10uM” value of the first is higher: -1.53% for the first, -25.5% for the second.

Going from `CCOC(=O)C1CCN(C(=O)Cc2c(C(=O)O)[nH]c3ccccc23)CC1` to `CCOC(=O)C1=C(COC(=O)Cc2ccc(OC)c(OC)c2)NC(=O)NC1C` (stereo not drawn), the “hERG current change (%, negative = inhibition) at 10uM” value falls from 4.19% to -2.96%.

Compared with `C=CCc1ccc(OCCOCCOc2cccc3cccnc23)c(OC)c1`, `Brc1ccc(CNc2ccc3ncccc3c2)cc1` is higher in “hERG current change (%, negative = inhibition) at 10uM” value: -29.3% for the first, 14.8% for the second.

Compared with `Cc1ccn(C(CC(=O)c2ccc(Br)cc2)C(=O)O)n1` (stereo not drawn), `CCCCN(C)C(=O)c1cn(-c2cccc(OC)c2)c(=O)c2ccccc12` is lower in “hERG current change (%, negative = inhibition) at 10uM” value: 1.89% for the first, -20.9% for the second.

Going from `CN(NS(=O)(=O)c1cccs1)c1ncc(C(F)(F)F)cc1Cl` to `O=C(NC(=O)c1ccccc1)NC1(C(F)(F)F)OCCO1`, the “hERG current change (%, negative = inhibition) at 10uM” value falls from 8.25% to 2.65%.

Going from `NNc1nc2cc3c(cc2s1)OCCO3` to `CSc1nsc2nc(=O)c(/C=C3\C=Nc4ccccc43)c(N)n12`, the “hERG current change (%, negative = inhibition) at 10uM” value rises from 14.1% to 18.4%.

Compared with `Cc1ccc(C2NC(c3ccc(C)cc3)C(C)C(=O)C2C)cc1` (stereo not drawn), `COc1ccc2c(c1)C(=O)N(c1ccc(C)cc1C)C(=O)C2` is higher in “hERG current change (%, negative = inhibition) at 10uM” value: -7.77% for the first, 7.6% for the second.

First: COc1cccc2cc(-c3csc(NC(=O)CCC(=O)NCCCN4CCC(C)CC4)n3)c(=O)oc12
Second: CCOc1cc(C2C(C#N)=C(N)Oc3n[nH]c(CC)c32)ccc1OCCN1CCOCC1 (stereo not drawn)
The “hERG current change (%, negative = inhibition) at 10uM” value of the first is lower: -51.9% for the first, 2.02% for the second.

Going from `O=C(NNC(=O)c1ccc(Br)s1)NC1CCCCC1` to `CCOC(=O)c1c(C)c[nH]c1C`, the “hERG current change (%, negative = inhibition) at 10uM” value falls from 28.1% to 11.5%.
